# PubChem BioAssay AID1768 (National Center for Advancing Translational Sciences (NCATS), 2009)
# Among all 270,000 compounds or so, about 620 (0.23%) were called active. Inconclusive means that the source gave no clear call. Such entries were picked first, then a sample of the others. Calls follow the shape of the dose curve; as a rule, active = well fitted inhibition curve with a large enough effect in the polarisation, with a control signal flat (not every such curve was filed as active); inconclusive = small, poorly fitted or top-dose-only effect, or effect the other way, or a change in a side signal; inactive = no such curve, though single readings can be large or run the other way; the % refers to the polarisation. Potencies of inconclusive entries are doubtful fits and often do not repeat. A note “side channel” means that the fit belongs to a control or component signal, not to the main read-out.
# Target: Menin (Homo sapiens) (UniProt O00255)
# UniProt O00255, sequence (O00255 whole entry, looked up): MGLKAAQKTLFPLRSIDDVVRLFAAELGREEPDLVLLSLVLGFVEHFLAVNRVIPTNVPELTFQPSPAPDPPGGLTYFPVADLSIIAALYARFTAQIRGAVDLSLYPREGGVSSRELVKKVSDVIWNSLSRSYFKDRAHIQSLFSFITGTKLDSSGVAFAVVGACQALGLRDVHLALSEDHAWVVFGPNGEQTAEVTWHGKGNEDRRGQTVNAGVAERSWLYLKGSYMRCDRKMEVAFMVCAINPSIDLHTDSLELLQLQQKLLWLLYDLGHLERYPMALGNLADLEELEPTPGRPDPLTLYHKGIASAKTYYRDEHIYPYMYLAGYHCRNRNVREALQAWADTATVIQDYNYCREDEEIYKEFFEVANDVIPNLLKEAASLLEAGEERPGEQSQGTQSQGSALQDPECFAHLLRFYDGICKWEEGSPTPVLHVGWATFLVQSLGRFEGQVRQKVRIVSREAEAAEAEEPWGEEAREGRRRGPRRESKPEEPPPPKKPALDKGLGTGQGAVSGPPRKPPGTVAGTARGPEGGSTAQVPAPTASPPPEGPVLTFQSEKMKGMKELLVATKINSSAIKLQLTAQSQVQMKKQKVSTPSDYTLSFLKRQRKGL
# Experiment: qHTS Assay for Inhibitors Targeting the Menin-MLL Interaction in MLL Related Leukemias: Competition With Texas Red Labeled MLL-derived Mutant Peptide
# Details: fluorescence polarization; series mostly up to 61.6 µM
# Potency is read from the fitted curve at half-maximal effect; tags tell the direction and shape of the fitted curve or compound fluorescence and quenching.
row,SMILES,Potency
1,N#Cc1ccc(-c2ccc(Cl)cc2)nc1SCC(=O)c1cccc(Cl)c1,"inconclusive: 3.16 µM [inhibitor, partial curve]"
2,COc1cc(CN2CCCCC2)ccc1OCc1ccccc1,"inconclusive: 39.8 µM [inhibitor, single point]"
3,Cc1ccc(-n2cccn2)c(CN2CCC(CO)(CCc3ccccc3)CC2)c1,"inconclusive: 11.2 µM [inhibitor, partial curve, poor fit]"
4,COc1ccc(CCNC(=O)c2ccccc2NS(=O)(=O)c2cc(C(=O)O)ccc2OC)cc1,"inconclusive: 17.8 µM [quencher, side channel, single point]"
5,Cc1cnc(NC(=O)c2sc3ccccc3c2Cl)s1,"inconclusive: 39.8 µM [quencher, side channel, single point]"
6,O=C1CC(NNc2ccccc2)C(=O)N1c1cccc(Cl)c1 (configuration not stated),"inconclusive: 22.4 µM [quencher, side channel, single point]"
7,O=C(CCCn1c(SCC(=O)c2ccc(Cl)cc2)nc2ccccc2c1=O)NCc1ccco1,"inconclusive: 17.8 µM [fluorescent, side channel, partial curve, poor fit]"
8,Cc1ccc(CNC(=O)[C@H](C)N2C(=O)N3CCc4c([nH]c5ccccc45)[C@@]3(C)C2=O)cc1,"inconclusive: 31.6 µM [fluorescent, side channel, single point]"
9,CCn1c(SCC(=O)Nc2nc(C)c(C)s2)nnc1-c1cccs1,inactive
10,CCOC(=O)N1C(=O)[C@@](c2ccc(Cl)cc2)(C(C)C)N1C(=O)OCC,inactive
11,Cc1ccc(CC(=O)Nc2cccc([N+](=O)[O-])c2)cc1,"inconclusive: 28.2 µM [quencher, side channel, single point]"
12,COc1ccc(C(=O)N/N=C/c2ccc(OC)c(CN3CCN(c4ccc(F)cc4)CC3)c2)cc1,inactive
13,C[n+]1cnc(-c2ccccc2)cc1-c1ccccc1,inactive
14,O=C(CCN1C(=O)/C(=C/c2ccccc2)SC1=S)NNC(=O)c1ccncc1,"inconclusive: 31.6 µM [inhibitor, single point]"
15,COc1ccc(N2C(=O)/C(=C\c3ccco3)N=C2SCC(=O)N(C(C)C)C(C)C)cc1Cl,"inconclusive: 39.8 µM [quencher, side channel, single point]"
16,CCCC(=O)NC(c1ccc(Cl)cc1Cl)c1ccc2cccnc2c1O (configuration not stated),"inconclusive: 35.5 µM [quencher, side channel, single point]"
17,CCOC(=O)C1CCCN(C2=NC(=O)/C(=C/c3ccc(OC)cc3OC)S2)C1 (configuration not stated),"inconclusive: 0.794 µM [inhibitor, full curve, poor fit]"
18,Cc1ccccc1C(=O)NNC(=S)Nc1cccc(C(F)(F)F)c1,"inconclusive: 11.2 µM [quencher, side channel, partial curve]"
19,COc1ccc(NC(=O)COc2ccccc2)cc1NC(=O)c1ccco1,"inconclusive: 7.08 µM [quencher, side channel, single point]"

row,SMILES,Potency
1,O=C(OCC1CC(c2ccccc2)=NO1)c1ccc(Cl)cc1 (configuration not stated),"inconclusive: 39.8 µM [inhibitor, single point]"
2,O=C(NCc1nnc(SCc2ccc(C(F)(F)F)cc2)n1-c1ccccc1)C12CC3CC(CC(C3)C1)C2,"inconclusive: 22.4 µM [fluorescent, side channel, partial curve, poor fit]"
3,CCc1ccc2[nH]c(=O)c(CN(CCN(CC)CC)C(=O)NC3CCCCC3)cc2c1,"inconclusive: 22.4 µM [fluorescent, side channel, partial curve, poor fit]"
4,N#Cc1ccsc1NC(=O)CSc1nnnn1-c1ccc(O)cc1,"inconclusive: 31.6 µM [quencher, single point]"
5,Cc1cc(N2CCN(C(=O)c3ccco3)CC2)n2nc(-c3cccc(Cl)c3)cc2n1,inactive
6,COC(=O)CCCC1=CC2=C(c3ccccc3)C(=O)C(C)(OC(=O)C3CCCC3)C(=O)C2=CN1c1ccc(OC)cc1 (configuration not stated),"inconclusive: 3.55 µM [fluorescent, side channel, single point]"
7,COc1ccc(C(=O)/C=C/C(=O)N(CC(=O)NC2CCCCC2)CC2CCCO2)c(O)c1 (configuration not stated),"inconclusive: 7.94 µM [fluorescent, side channel, full curve]"
8,O=C(CSc1nnc(NC(=O)C2CC(=O)N(c3ccc(F)cc3)C2)s1)NCc1ccco1 (configuration not stated),"inconclusive: 22.4 µM [quencher, side channel, partial curve]"
9,COc1ccc(NC(=O)C2CCN(S(C)(=O)=O)CC2)c(OC)c1,"inconclusive: 15.8 µM [inhibitor, partial curve]"
10,Cc1ccccc1Nc1nc(Nc2ccccc2C)nc(SC2=NCCS2)n1,inactive
11,CC(C)=CCC1=C(O)[C@](O)(CC=C(C)C)C(=O)C(C(=O)CC(C)C)=C1O,"inconclusive: 35.5 µM [quencher, side channel, single point]"
12,CC(=O)Nc1ccc(OC(F)(F)C(F)F)c(NC(C)=O)c1,inactive
13,COc1ccc(C(=O)/C=C/C(=O)N(CC(=O)NC2CCCCC2)Cc2ccccc2)c(O)c1,inactive
14,O=[N+]([O-])c1cccc(-c2n[nH]c(=S)n2-c2ccc(Br)cc2)c1,"inconclusive: 39.8 µM [quencher, side channel, single point]"
15,Cc1[nH]n(-c2ccccc2)c(=S)c1C=Nc1ccc([N+](=O)[O-])cc1,inactive
16,COc1ccc(C(=S)N2CCOCC2)cc1OC(=O)c1cc([N+](=O)[O-])c(C)c([N+](=O)[O-])c1,"inconclusive: 28.2 µM [quencher, side channel, single point]"
17,CCCNC(=S)N1CCN(c2nc(-c3cccc(OC)c3)cs2)CC1,"inconclusive: 28.2 µM [quencher, side channel, partial curve]"
18,CCOc1ccc(NC(=O)Cn2cc(C(C)=O)c3ccccc32)cc1,"inconclusive: 8.91 µM [fluorescent, single point]"
